Results taken from publication PMC5892938.
Some of the results follow. At the low end of the ranking, values are background and their order means little.

The sequences below were run against GST-SBP-SLBP (stem-loop binding protein) (UniProt Q14493) (assay: targeted RNA Bind-n-Seq). Conditions: RBNS binding buffer: 25 mM Tris pH 7.5, 150 mM KCl, 3 mM MgCl2, 0.1% Tween, 0.5 mg/mL BSA, 1 mM DTT; 27 nM protein, 750 pM RNA pool; temperature not stated; high values mean tight binding.
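Note: DESeq read counts versus GST-SBP nonspecific binding control pulldown.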

How did the binding signal (log2 fold change) turn out when “GGUCACGUCUCAAUCAACUCUUCUCCAGGAGUUUACUCCUGUUUUUUCAACAGCUCGCAGUCAAG” was run?
Its binding signal (log2 fold change) is -0.133.

With “GGUCACGUCUCAAUCAACUCUUCCCCCAGGGAAACCCCUGGCAAUGUCAACAGCUCGCAGUCAAG” as the sequence, how does the binding signal (log2 fold change) read?
The binding signal (log2 fold change) was 0.0304.

Which binding signal (log2 fold change) does the source give for “GGUCACGUCUCAAUCAACUCUAUCUCAGGAGUUUACUCCUGCUUAUUCAACAGCUCGCAGUCAAG” here?
The binding signal (log2 fold change) was 0.12.

For “GGUCACGUCUCAAUCAACUCUUCUCCCAGGGAAAUCCCUGGCAAUUUCAACAGCUCGCAGUCAAG”, which binding signal (log2 fold change) is on record?
The binding signal (log2 fold change) was 0.0159.

How did the binding signal (log2 fold change) turn out when “GGUCACGUCUCAAUCAACUCACACGAGGGGGGGAAAACCCCUUUACCCUCUACAUCAACAGCUCGCAGUCAAG” was run?
Its binding signal (log2 fold change) is -0.158.

“GGUCACGUCUCAAUCAACUCUAUUUCCAGGGAAACCCCUGGUUAACUCAACAGCUCGCAGUCAAG” was tested. Which binding signal (log2 fold change) did it give?
Its binding signal (log2 fold change) is -0.356.

“GGUCACGUCUCAAUCAACUCUCAAGAGGGGGGGAAAACCCCUUUGCCCUCAUCUUCAACAGCUCGCAGUCAAG” was tested. Which binding signal (log2 fold change) did it give?
The binding signal (log2 fold change) was -0.534.

Which binding signal (log2 fold change) does the source give for “GGUCACGUCUCAAUCAACUCUACUUCCAGGGAAACCCCUGGCUAUCUCAACAGCUCGCAGUCAAG” here?
The binding signal (log2 fold change) was 0.167.

“GGUCACGUCUCAAUCAACUCGUCUUCAGGAGUUUUCUCCUGCAUUUUCAACAGCUCGCAGUCAAG” was tested. Which binding signal (log2 fold change) did it give?
Its binding signal (log2 fold change) is -0.0137.

For “GGUCACGUCUCAAUCAACUCUUUUUCAGGAGUUUCCUCCUGUUAUCUCAACAGCUCGCAGUCAAG”, which binding signal (log2 fold change) is on record?
Its binding signal (log2 fold change) is 0.166.

How did the binding signal (log2 fold change) turn out when “GGUCACGUCUCAAUCAACUCAAUUCCCAGGGAAACCCCUGGUUAAUUCAACAGCUCGCAGUCAAG” was run?
Its binding signal (log2 fold change) is 0.147.

With “GGUCACGUCUCAAUCAACUCAACUCCAGGAGUUUUCUCCUGUAAACUCAACAGCUCGCAGUCAAG” as the sequence, how does the binding signal (log2 fold change) read?
The binding signal (log2 fold change) was 0.195.

With “GGUCACGUCUCAAUCAACUCCCCAGAGGGGGGGAAAACCCCUUUACCCUCGUUAUCAACAGCUCGCAGUCAAG” as the sequence, how does the binding signal (log2 fold change) read?
Its binding signal (log2 fold change) is 0.0301.

For “GGUCACGUCUCAAUCAACUCAUUUUCCAGGGAAAGCCCUGGCUUACUCAACAGCUCGCAGUCAAG”, which binding signal (log2 fold change) is on record?
Its binding signal (log2 fold change) is -0.0632.

With “GGUCACGUCUCAAUCAACUCAAUCCCCAGGGAAAACCCUGGUUAACUCAACAGCUCGCAGUCAAG” as the sequence, how does the binding signal (log2 fold change) read?
Its binding signal (log2 fold change) is -0.0665.

Which binding signal (log2 fold change) does the source give for “GGUCACGUCUCAAUCAACUCUUUAGAGGGGGGGAAAACCCCUUUACCCUCCGCAUCAACAGCUCGCAGUCAAG” here?
The binding signal (log2 fold change) was 0.103.

How did the binding signal (log2 fold change) turn out when “GGUCACGUCUCAAUCAACUCAUCCUCAGGAGUUUUCUCCUGUAAAGUCAACAGCUCGCAGUCAAG” was run?
Its binding signal (log2 fold change) is 0.126.

How did the binding signal (log2 fold change) turn out when “GGUCACGUCUCAAUCAACUCAUAAGAGGGGGGGAAAACCCCUUUGCCCUCAUUUUCAACAGCUCGCAGUCAAG” was run?
Its binding signal (log2 fold change) is -0.0794.

With “GGUCACGUCUCAAUCAACUCUUCCCCCAGGGAAACCCCUGGCAAACUCAACAGCUCGCAGUCAAG” as the sequence, how does the binding signal (log2 fold change) read?
Its binding signal (log2 fold change) is -0.023.

How did the binding signal (log2 fold change) turn out when “GGUCACGUCUCAAUCAACUCAAUCCCAGGAGUUUACUCCUGCUAUUUCAACAGCUCGCAGUCAAG” was run?
The binding signal (log2 fold change) was -0.152.

Which binding signal (log2 fold change) does the source give for “GGUCACGUCUCAAUCAACUCUUUCUCAGGAGUUUUCUCCUGUAAUCUCAACAGCUCGCAGUCAAG” here?
The binding signal (log2 fold change) was -0.0425.

For “GGUCACGUCUCAAUCAACUCAUCUUCAGGAGUUUACUCCUGUUUACUCAACAGCUCGCAGUCAAG”, which binding signal (log2 fold change) is on record?
The binding signal (log2 fold change) was 0.0798.

How did the binding signal (log2 fold change) turn out when “GGUCACGUCUCAAUCAACUCCCCAGAGGGGGGGAAAACCCCUUUGCCCUCACUUUCAACAGCUCGCAGUCAAG” was run?
Its binding signal (log2 fold change) is 0.0765.

With “GGUCACGUCUCAAUCAACUCAUCUUCCAGGGAAACCCCUGGCGUUUUCAACAGCUCGCAGUCAAG” as the sequence, how does the binding signal (log2 fold change) read?
Its binding signal (log2 fold change) is 0.0622.

Which binding signal (log2 fold change) does the source give for “GGUCACGUCUCAAUCAACUCAUCGUCAGGAGUUUCCUCCUGCUAUCUCAACAGCUCGCAGUCAAG” here?
The binding signal (log2 fold change) was -0.139.

For “GGUCACGUCUCAAUCAACUCAACUUCCAGGGAAAUCCCUGGUAUUCUCAACAGCUCGCAGUCAAG”, which binding signal (log2 fold change) is on record?
Its binding signal (log2 fold change) is -0.143.

How did the binding signal (log2 fold change) turn out when “GGUCACGUCUCAAUCAACUCUUCUCCAGGAGUUUUCUCCUGUAAUCUCAACAGCUCGCAGUCAAG” was run?
The binding signal (log2 fold change) was 0.159.

“GGUCACGUCUCAAUCAACUCCCACGAGGGGGGGAAAACCCCUUUACCCUCUUUCUCAACAGCUCGCAGUCAAG” was tested. Which binding signal (log2 fold change) did it give?
The binding signal (log2 fold change) was -0.0395.

“GGUCACGUCUCAAUCAACUCAUUUUCCAGGGAAACCCCUGGUAAUCUCAACAGCUCGCAGUCAAG” was tested. Which binding signal (log2 fold change) did it give?
The binding signal (log2 fold change) was -0.148.

Which binding signal (log2 fold change) does the source give for “GGUCACGUCUCAAUCAACUCUACAGAGGGGGGGAAAACCCCUUUGCCCUCCAUUUCAACAGCUCGCAGUCAAG” here?
The binding signal (log2 fold change) was -0.00125.

Which binding signal (log2 fold change) does the source give for “GGUCACGUCUCAAUCAACUCCCUAGAGGGGGGGAAAACCCCUUUGCCCUCAUCCUCAACAGCUCGCAGUCAAG” here?
The binding signal (log2 fold change) was -0.0494.

For “GGUCACGUCUCAAUCAACUCAAUUCCCAGGGAAAGCCCUGGCAUUUUCAACAGCUCGCAGUCAAG”, which binding signal (log2 fold change) is on record?
Its binding signal (log2 fold change) is -0.0234.

Which binding signal (log2 fold change) does the source give for “GGUCACGUCUCAAUCAACUCCCAAGAGGGGGGGAAAACCCCUUUACCCUCACUAUCAACAGCUCGCAGUCAAG” here?
Its binding signal (log2 fold change) is -0.0506.

Which binding signal (log2 fold change) does the source give for “GGUCACGUCUCAAUCAACUCUCUCGAGGGGGGGAAAACCCCUUUACCCUCAUCUUCAACAGCUCGCAGUCAAG” here?
Its binding signal (log2 fold change) is 0.251.

With “GGUCACGUCUCAAUCAACUCAUCCCCCAGGGAAAACCCUGGCUUUUUCAACAGCUCGCAGUCAAG” as the sequence, how does the binding signal (log2 fold change) read?
Its binding signal (log2 fold change) is 0.0339.

“GGUCACGUCUCAAUCAACUCUUCUUCCAGGGAAAACCCUGGCAAACUCAACAGCUCGCAGUCAAG” was tested. Which binding signal (log2 fold change) did it give?
Its binding signal (log2 fold change) is 0.378.

“GGUCACGUCUCAAUCAACUCUUCUCCCAGGGAAACCCCUGGUAAUUUCAACAGCUCGCAGUCAAG” was tested. Which binding signal (log2 fold change) did it give?
The binding signal (log2 fold change) was -0.208.

Which binding signal (log2 fold change) does the source give for “GGUCACGUCUCAAUCAACUCAUUCUCAGGAGUUUUCUCCUGCAUAGUCAACAGCUCGCAGUCAAG” here?
Its binding signal (log2 fold change) is -0.0797.

Which binding signal (log2 fold change) does the source give for “GGUCACGUCUCAAUCAACUCAUCCUCAGGAGUUUACUCCUGUAAAUUCAACAGCUCGCAGUCAAG” here?
Its binding signal (log2 fold change) is 0.243.

With “GGUCACGUCUCAAUCAACUCUCAAGAGGGGGGGAAAACCCCUUUGCCCUCAUUCUCAACAGCUCGCAGUCAAG” as the sequence, how does the binding signal (log2 fold change) read?
The binding signal (log2 fold change) was -0.339.

With “GGUCACGUCUCAAUCAACUCUAUCUCCAGGGAAACCCCUGGUUAUCUCAACAGCUCGCAGUCAAG” as the sequence, how does the binding signal (log2 fold change) read?
Its binding signal (log2 fold change) is 0.0397.

How did the binding signal (log2 fold change) turn out when “GGUCACGUCUCAAUCAACUCAUCUUCAGGAGUUUACUCCUGCAUAGUCAACAGCUCGCAGUCAAG” was run?
Its binding signal (log2 fold change) is 0.0844.

For “GGUCACGUCUCAAUCAACUCUUUUUCAGGAGUUUUCUCCUGUUAACUCAACAGCUCGCAGUCAAG”, which binding signal (log2 fold change) is on record?
Its binding signal (log2 fold change) is -0.0644.

For “GGUCACGUCUCAAUCAACUCUUUAGAGGGGGGGAAAACCCCUUUGCCCUCAUCCUCAACAGCUCGCAGUCAAG”, which binding signal (log2 fold change) is on record?
The binding signal (log2 fold change) was 0.00885.

How did the binding signal (log2 fold change) turn out when “GGUCACGUCUCAAUCAACUCAAAAGAGGGGGGGAAAACCCCUUUGCCCUCAAUAUCAACAGCUCGCAGUCAAG” was run?
Its binding signal (log2 fold change) is -0.146.

Which binding signal (log2 fold change) does the source give for “GGUCACGUCUCAAUCAACUCAAUCCCCAGGGAAACCCCUGGCUAUUUCAACAGCUCGCAGUCAAG” here?
Its binding signal (log2 fold change) is -0.0628.

How did the binding signal (log2 fold change) turn out when “GGUCACGUCUCAAUCAACUCAACGCCAGGAGUUUCCUCCUGUAAAUUCAACAGCUCGCAGUCAAG” was run?
Its binding signal (log2 fold change) is -0.0571.
